In paper PMC7819943, “Rice protein-binding microarrays: a tool to detect cis-acting elements near promoter regions in rice” one finds binding signal data, which are given here for 42 sequences.

This is one part of the list.

The assay has as its target T1, OsWOX13 (Oryza sativa, UniProt Q5QMM3 1-267).
T1 sequence: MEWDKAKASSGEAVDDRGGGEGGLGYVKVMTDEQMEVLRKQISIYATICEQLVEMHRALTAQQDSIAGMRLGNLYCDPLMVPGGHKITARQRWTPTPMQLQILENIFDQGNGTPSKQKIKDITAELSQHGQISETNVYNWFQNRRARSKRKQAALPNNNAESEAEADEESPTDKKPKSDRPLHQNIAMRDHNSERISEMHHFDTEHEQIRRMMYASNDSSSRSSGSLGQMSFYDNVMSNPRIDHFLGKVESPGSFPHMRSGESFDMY
Description: protein-binding microarray (RPBM); PBS, 2% BSA, 51.3 ng/ul salmon testes DNA, 50 uM zinc acetate, 200 nM TF, 25 C, 1 h; high values mean tight binding. As to conditions: protein: recombinant; tags: N-terminal polyhistidine and DsRed monomer fusion (pET32a); label: CyDye5-dUTP incorporated in the synthesized complementary strand; 3' TTTTT single-stranded linker to array surface; dsDNA, one strand shown. Summed up: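 An Axon 4000B scanner gave the binding signal as per-feature fluorescence intensity in arbitrary units. This followed washing of a custom Agilent array that had been incubated for 1 h at 25 °C with 200 nM protein in PBS, 2% BSA, salmon testes DNA and 50 µM zinc acetate. The proteins were transcription factors fused at the N-terminus to polyhistidine and DsRed, expressed in E. coli BL21-CodonPlus and purified on Ni–NTA.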
For the sequence “CCATCTGCTGATAGATTTTCTATTGCCAAATCTTACACCTCGGAGTCACCTAGTGCAG”, the binding signal was 5710 fluorescence intensity (a.u.).
The same measure for “TCCTGTATTATTTTACCGTCTGATTTACTGCATGTGAGCTCGGAGTCACCTAGTGCAG”: 4270 fluorescence intensity (a.u.); for “TGGATTGAGATATTTATTTATGATGATCACATCTGCACCTCGGAGTCACCTAGTGCAG”: 9980 fluorescence intensity (a.u.).
On to “GAGTATTATAATTATCTTTTGTAAATCTTAAATTTTGCTACGGAGTCACCTAGTGCAG”, for which the binding signal was 8850 fluorescence intensity (a.u.).
As for “GTGAGTAATTAATACCAATGCTTCTTCTTTTCTCCCTTACCGGAGTCACCTAGTGCAG”, the figure is 6680 fluorescence intensity (a.u.); as for “ATCCACTGTTTGTGAATTGTCAATTTGTCATGCGTTGTACCGGAGTCACCTAGTGCAG”, 4140 fluorescence intensity (a.u.); as for “TCCATGATTAGCCATAAGTGTTACGTAACCCACATGTGCTCGGAGTCACCTAGTGCAG”, 32500 fluorescence intensity (a.u.).
As for “TGTGATTGGAGGCTGGCAGAGAGGCGAGATCGGTCGGCGGCGGAGTCACCTAGTGCAG”, the figure is 45000 fluorescence intensity (a.u.); as for “ATGCATGATTTGATAAGAGAGTTCTCAGTTGCTGTTTCTTCGGAGTCACCTAGTGCAG”, 15600 fluorescence intensity (a.u.).
As for “AAACTTTTGATTTATAAACTTTTGGTCTCTAAACTTTAGACGGAGTCACCTAGTGCAG”, the figure is 6990 fluorescence intensity (a.u.); as for “GCATCAATAACACCAAGATGACACAAAATGCACACCATGTCGGAGTCACCTAGTGCAG”, 4170 fluorescence intensity (a.u.).
For the sequence “TCAAATTTATTGTCAGATGTAAACAAAGCCAAAATTATGTCGGAGTCACCTAGTGCAG”, the binding signal is 4230 fluorescence intensity (a.u.).
The same measure for “TCAGATTGATGGCCATACCATTATTTGGTTGATAATTACGCGGAGTCACCTAGTGCAG”: 32000 fluorescence intensity (a.u.); for “TGTGAAATAAATTATTTAATTACTACATGGAAATAAAGTTCGGAGTCACCTAGTGCAG”: 11500 fluorescence intensity (a.u.).
The same measure for “ATTCAAATTTGTCAAACATTGTTTTCTTCTCTTTCATATCCGGAGTCACCTAGTGCAG”: 5020 fluorescence intensity (a.u.).
The same measure for “GAGCTGTTGGGAGGCCGTGCTGGTACCGGAGAGGAGAGGGCGGAGTCACCTAGTGCAG”: 4760 fluorescence intensity (a.u.); for “TCCCGGCCGGCCTGATTGGGTTATCTTATCCTCAGTCCTGCGGAGTCACCTAGTGCAG”: 5930 fluorescence intensity (a.u.).
Regarding “GTAACAAATTAGCAATCCTCATATACTACTACTAAAGATTCGGAGTCACCTAGTGCAG”, the binding signal is 14800 fluorescence intensity (a.u.).
As for “TAATTACCTAGATTGTGTGTAAATTGCGAGACGAATATTTCGGAGTCACCTAGTGCAG”, the figure is 4920 fluorescence intensity (a.u.); as for “TTATCAATCTAGGAGAGAGATTTCGCAGGCACGGAATTAGCGGAGTCACCTAGTGCAG”, 9560 fluorescence intensity (a.u.); as for “TTTAAATGAATGGCAGGAAAATCTGACTTGGTAGTCCTGACGGAGTCACCTAGTGCAG”, 4910 fluorescence intensity (a.u.).
The same measure for “ATAGATAGATAGATAGATAGATAGATTGATCGATCGATCGCGGAGTCACCTAGTGCAG”: 55400 fluorescence intensity (a.u.); for “TCGCTAATTAACAAGTCGGTCAACTCCAAGTTAACTTGCTCGGAGTCACCTAGTGCAG”: 26200 fluorescence intensity (a.u.); for “ATGATTGTCTATTCCTCTGTCCAGGAGAGAACAGAGTATTCGGAGTCACCTAGTGCAG”: 22100 fluorescence intensity (a.u.).
Consider “ATAGTGATTTAAAATTTTAAATTTCATCTAAAGCAAGAAACGGAGTCACCTAGTGCAG”, for which the binding signal is 16900 fluorescence intensity (a.u.).
On to “AATAATTCCATTGAATTTACACACTTACATTATAGTGCCTCGGAGTCACCTAGTGCAG”, for which the binding signal is 3370 fluorescence intensity (a.u.).
The same measure for “ATTGTCTTGATTATAACCTCCGAGAGATATGATGTTGCAACGGAGTCACCTAGTGCAG”: 8440 fluorescence intensity (a.u.); for “ACTCCAATTAGAAAGACATTTATTTATATCCGTTATGTAACGGAGTCACCTAGTGCAG”: 10900 fluorescence intensity (a.u.).
The same measure for “TGCACCTAATTGTATCCACCTGCCAAGTTCTTATACAGCCCGGAGTCACCTAGTGCAG”: 6280 fluorescence intensity (a.u.); for “TAGATTGATTGTTACTCCGTACATAACCTTGTCTTCTTCGCGGAGTCACCTAGTGCAG”: 55400 fluorescence intensity (a.u.); for “ACTGATAGCTAAATACAGTGACATATATTAACTATTTCTTCGGAGTCACCTAGTGCAG”: 4970 fluorescence intensity (a.u.).
The same measure for “GTATGGATTGAAGGTAACGTAGCATTTGCCTTCACCACAACGGAGTCACCTAGTGCAG”: 5030 fluorescence intensity (a.u.); for “ATTGCAATAATTATTCTTCTCTTTAGCAGCTACCCCTTCACGGAGTCACCTAGTGCAG”: 7430 fluorescence intensity (a.u.); for “GACGAATTACTTGTTTAAACGAAACGGATTGGGGTTTTCTCGGAGTCACCTAGTGCAG”: 3940 fluorescence intensity (a.u.).
Turning to “ATAACAGAATGGATGACGTAAGCTGCACACGCGGCACTAGCGGAGTCACCTAGTGCAG”, the binding signal was 3930 fluorescence intensity (a.u.).
In the case of “TTTGATAGGCATATTTCAATCCAACAACTTATCATCTTAACGGAGTCACCTAGTGCAG”, the binding signal was 13200 fluorescence intensity (a.u.).
As for “ACCAATTGCTGATGATCTGAGAATAATTCCATTCCAAAATCGGAGTCACCTAGTGCAG”, the figure is 3430 fluorescence intensity (a.u.); as for “ATAAAATTACAATGTCATAATTAATATAAATCCAATGACACGGAGTCACCTAGTGCAG”, 14400 fluorescence intensity (a.u.); as for “CATGTGCGATATGATTATCTAAACTCTATCGAACGTGCCACGGAGTCACCTAGTGCAG”, 3350 fluorescence intensity (a.u.).
The same measure for “TCGCCATGGATGGTGATTGGTCATGGACTCGCGGTTCGGGCGGAGTCACCTAGTGCAG”: 5640 fluorescence intensity (a.u.); for “GGAAATTTATATCCTTTACGGCGAATGTGATTTCTCATTTCGGAGTCACCTAGTGCAG”: 3410 fluorescence intensity (a.u.); for “AATTGATTATCCGAGAAGCAATGAGCAGAACGTTCATGTACGGAGTCACCTAGTGCAG”: 33400 fluorescence intensity (a.u.).
